In PubChem BioAssay AID2546 (National Center for Advancing Translational Sciences (NCATS), 2010):
“And” between values parts separate entries of the source, which are not always exact repeats. Equal values may be shown once. Among all 310,000 compounds or so, about 11,000 (3.5%) were called active. Inconclusive results, whose numbers are uncertain, are shown with a selection of clear calls. The call rests on the fitted dose curve; in most records, active means well fitted inhibition curve with a large enough effect; inconclusive means small, poorly fitted or top-dose-only effect, or effect the other way; inactive means flat fitted curve, though single readings scatter. A potency beside an inconclusive call is a rough fit, not a confirmed value.

assay: VP16 counterscreen qHTS for inhibitors of ROR gamma transcriptional activity; conditions: Drosophila S2 Gal4-VP16 UAS-luciferase, luminescence, 20 h; series mostly up to 53.6 µM;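 further: Gal4-VP16 expression switched on by copper sulfate through the metallothionein promoter; nearly all actives have a fitted effect of over 50% in size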
Potency means the concentration at half of the fitted maximal effect; tags describe the fitted curve by direction and shape.

SMILES	Potency
CCOc1ccc(N=Cc2ccc3ccccc3c2)cc1	inactive
CC(Sc1nnc2c(n1)C1CCC2(C)C1(C)C)C(=O)Nc1ccccc1 (centres undefined)	inconclusive: 5.62 µM [activator, single point]
CS(=O)(=O)Nc1ccccc1C(=O)Nc1cc(Cl)cc(Cl)c1	inconclusive: 25.1 µM [inhibitor, single point]
N#CC(C(N)=O)=C1CCCCC1	inconclusive: 35.5 µM [inhibitor, single point]
Cc1onc(-c2ccccc2Cl)c1C(=O)NC(=S)Nc1ccc(C(C)C)cc1	inconclusive: 5.62 µM [inhibitor, full curve]
COc1cccc(-c2ccc3ncnc(NCCNC(C)=O)c3c2)c1	inactive
c1cc2[nH]snc2c2nc(C3CC3)nc12	inactive
COc1cc2c(cc1OC)C(c1ccccc1)=NCC2	inactive and inconclusive: 3.55 µM [inhibitor, single point]
Cc1ccc(NC(=S)NC(=O)C2CC2)c(C)c1	active: 7.08 µM
CC1CCC(C(C)C)C(OC(=O)CSc2nc(N)cc(=O)[nH]2)C1 (centres undefined)	inactive
S=c1[nH]nc(COc2ccccc2)n1-c1ccccc1	active: 10 µM
O=S(=O)(C/C(=C/CO)S(=O)(=O)c1ccccc1)c1ccccc1	active: 4.47 µM
O=C(/C=C/c1ccccc1)Nc1ccc2c(c1)OCCO2	active: 12.6 µM
O=C(Nc1cccc(Cl)c1)Nc1ccc(Br)cc1F	inconclusive: 22.4 µM [inhibitor, single point]
Cc1cc(N2C(=O)C=CC2=O)c([N+](=O)[O-])cc1C	active: 4.47 µM
Nn1c(Nc2ccccc2)nc2sc3c(c2c1=O)CCCC3	inactive
CCC12CN3CC(CC)(CN(C1)C3c1c(O)ccc3ccccc13)C2=O (centres undefined)	inconclusive: 35.5 µM [inhibitor, single point]
CCOc1cc(C)c(-c2onc(C(F)(F)F)c2-c2csc(C)n2)c(O)c1	active: 11.2 µM
S=C(NCc1cccs1)Nc1ccccc1	inconclusive: 35.5 µM [inhibitor, single point]
CCOC(=O)C1(CC2CCCCO2)CCN(Cc2nccn2-c2ccc(OC)cc2)CC1 (centres undefined)	inconclusive: 31.6 µM [inhibitor, single point]
CC(C)OCCCNc1ncnc2c1[nH]c1ccc(F)cc12	active: 2.82 µM
O=C(COC(=O)c1cccnc1Cl)Nc1ccc2c(c1)OCCO2	inactive
CCOC(=O)c1ccc(NC(=S)NCCC2=CCCCC2)cc1	active: 3.16 µM
CCCNC(=S)Nc1cc2oc3ccccc3c2cc1OC	active: 7.08 µM
CC(C)NC(=O)c1cc2cc(Br)ccc2oc1=O	inactive
CCOc1cccc(/C=C/c2ccc3ccccc3n2)c1OC(C)=O	inconclusive: 6.31 µM [inhibitor, single point]
C/C(CC(=O)N1CCCC1)=N\NC(=O)c1cc2ccccc2cc1O	inconclusive: 35.5 µM [inhibitor, single point]

SMILES	Potency
COc1cccc(/C=N/NC(=O)C(=O)N2CCCC2)c1O	inconclusive: 35.5 µM [inhibitor, single point]
CCC(C)(c1ccc(C(=O)OC)s1)c1ccc(C(=O)OC)s1	inconclusive: 35.5 µM [inhibitor, single point]
Cc1occc1C(=O)N/N=C/C=C/c1ccc(N(C)C)cc1	active: 3.16 µM
Cc1nn(Cc2ccc(Cl)c(Cl)c2)c(C)c1NC(=O)c1cc(C2CC2)on1	inconclusive: 35.5 µM [inhibitor, single point]
Fc1cccc(Cl)c1/C=C/c1cnc2ccccc2n1	inconclusive: 7.08 µM [inhibitor, partial curve]
O=C(Nc1ccccc1O)c1ccccc1O	inconclusive: 35.5 µM [inhibitor, single point]
O=C(C1=C(O)C(=O)N(Cc2ccco2)C1c1cccnc1)c1cc2ccccc2o1 (centres undefined)	inactive
C[C@@H]1CC=C[C@H]2[C@H]1C(=O)N(Cc1ccccc1)[C@H]2c1ccc2ccccc2c1	inconclusive: 35.5 µM [inhibitor, single point]
O=[N+]([O-])c1ccccc1S(=O)(=O)Oc1ccc(/C=N/n2cnnc2)cc1	inactive
CCN(CC)CCCNC(=O)c1cc(Sc2nnc(C)s2)nc2ccccc12	inconclusive: 35.5 µM [inhibitor, single point]
CNS(=O)(=O)c1ccc(NC(=O)c2csc(C)c2)cc1	inconclusive: 35.5 µM [inhibitor, single point]
O=C1CC(c2ccccc2F)c2c(c3ccccc3[nH]c2=O)O1 (centres undefined)	inactive
N#Cc1cccc(-c2ccc3ncnc(NCc4cccs4)c3c2)c1	inconclusive: 17.8 µM [inhibitor, single point]
Nc1sc(-c2ccccc2)cc1C(=O)O	inconclusive: 7.94 µM [inhibitor, partial curve]
Cc1ccc(NC(=O)Cn2c(=O)c3cccn3c3ccccc32)cc1	inactive
CC1CCc2sc(C(=O)N/N=C/C3CCCCC3)cc2C1 (centres undefined)	inconclusive: 35.5 µM [inhibitor, single point]
O=C(CC(=O)NN=C1CCCCCC1)NCc1cccnc1	inactive
Cc1ccc(OCC(=O)Nc2ccc3c(c2)nc(CCN2CCN(C)CC2)n3C)cc1	inactive
Cc1ccsc1/C=N/NC(=O)c1sccc1C	inconclusive: 20 µM [inhibitor, single point]
COc1ccc(/C=N/Nc2ccc(C(F)(F)F)cc2[N+](=O)[O-])cc1O	inconclusive: 28.2 µM [inhibitor, single point]
O=C(Nc1ccc(N2CCOCC2)nc1)c1cccs1	inconclusive: 12.6 µM [inhibitor, single point]
CCn1c2ccccc2c2cc(NS(=O)(=O)c3ccc(C)cc3)ccc21	inactive
Cc1cccc(NC(=S)N(c2ccccc2)C(C)C)c1C	active: 25.1 µM
O=C(CSc1nc2ncc(Br)cc2[nH]1)Nc1ccccc1-c1ccccc1	inconclusive: 35.5 µM [inhibitor, single point]
COc1cc(NC(=O)C2CCCN2C(=O)C2CCC(C)CC2)cc(OC)c1OC (centres undefined)	inconclusive: 1.26 µM [inhibitor, full curve, poor fit]
COc1ccccc1-n1c(CNC(=O)c2cccc([N+](=O)[O-])c2C)n[nH]c1=S	inconclusive: 0.141 µM [inhibitor, full curve, poor fit]
Cc1cc(NCc2ccccn2)n2nc(C)c(-c3ccc(Cl)cc3)c2n1	active: 0.708 µM

SMILES	Potency
Cc1cc(OCCCn2ccnc2)ccc1C(C)C	inconclusive: 15.8 µM [inhibitor, single point]
Cc1ccc(S(=O)(=O)c2cc3c(=O)n4cccc(C)c4nc3n(Cc3ccncc3)c2=N)cc1	inactive
CCOC(=O)n1c(=O)[nH]c2ccc(Br)cc21	inactive
COc1ccc(C(=O)NC(=S)NC2CCSC2=O)cc1 (centres undefined)	inconclusive: 35.5 µM [inhibitor, single point]
CCC(Oc1ccccc1)C(=O)Nc1nc2ccccc2[nH]1 (centres undefined)	inconclusive: 35.5 µM [inhibitor, single point]
CCC(C)NC(=O)CSc1nc2ccc(N3CCOCC3)cc2c(=O)n1CCc1ccccc1 (centres undefined)	inconclusive: 22.4 µM [inhibitor, single point]
CCN1C(=O)CC(Sc2ccccc2C(=O)O)C1=O (centres undefined)	inactive
COCCOC(=O)/C(=C/c1ccc(OC(=O)c2ccccc2)cc1)C(C)=O	inconclusive: 28.2 µM [inhibitor, single point]
CCOc1ccccc1CN1CCN(Cc2[nH]c3ccccc3c2C)CC1CCO (centres undefined)	inconclusive: 12.6 µM [inhibitor, partial curve]
CCOC(=O)c1ccc(NC(=S)N2CCN(Cc3ccccc3)CC2)cc1	inconclusive: 35.5 µM [inhibitor, single point]
COc1cc(NCCCCCCCN)c2ncccc2c1	inconclusive: 1.58 µM [inhibitor, full curve]
COc1ccc(CCC(C)Nc2ccc(F)c(F)c2)cc1 (centres undefined)	inconclusive: 5.62 µM [activator, single point]
COc1cccc(N2CN(CCc3ccccc3)CNC2=S)c1	inconclusive: 25.1 µM [inhibitor, single point]
O=C(c1cccs1)c1no[n+]([O-])c1C(=O)c1cccs1	active: 11.2 µM
NC(=O)c1oc2ccccc2c1NC(=O)c1ccc([N+](=O)[O-])o1	inconclusive: 0.398 µM [inhibitor, single point]
CCSc1nnc(NC(=O)c2cccnc2Cl)s1	inconclusive: 0.708 µM [activator, full curve, poor fit]
CSC(=S)N/N=C/c1ccccc1	active: 3.16 µM
N#CC1(NC(=O)COC(=O)CCN=C2NS(=O)(=O)c3ccccc32)CCCCC1	inactive
COc1ccc(NS(=O)(=O)c2cccc(C(=O)NC3CCC(O)CC3)c2)cc1 (centres undefined)	inconclusive: 20 µM [inhibitor, single point]
CCNC(=S)Nc1ccccc1-c1ccccc1	active: 11.2 µM
CCn1c(-c2csc3ccccc23)n[nH]c1=S	active: 6.31 µM
Cn1c(N/N=C/c2cc3ccccc3nc2Cl)nc2ccccc21	active: 1.26 µM
CCOc1ccc(-n2c(SCC(=O)Nc3cc(C)on3)nc3c(c2=O)SCC3)cc1	inactive
CN1/C(=C\C(=O)CSc2ncn[nH]2)C(C)(C)c2ccccc21	inconclusive: 5.01 µM [activator, single point]
COC(=O)[C@@H](Cc1c[nH]c2ccccc12)NC(=O)C1CCCN(S(=O)(=O)c2ccc(C)cc2)C1 (some centres undefined)	inconclusive: 31.6 µM [inhibitor, single point]
